{
  "source": "PubChem BioAssay AID686979",
  "about": "(National Center for Advancing Translational Sciences (NCATS), 2013)",
  "note": "Values joined by “and” are separate entries in the source; they are usually repeats but may differ in a detail not shown here. Equal entries are not always repeated. The whole screen tested about 420,000 compounds, of which about 50,000 (12%) were called active. Inconclusive means that the source gave no clear call. Such entries were picked first, then a sample of the others. The call rests on the fitted dose curve; in most records, active means well fitted inhibition curve with a large enough effect; inconclusive means small, poorly fitted or top-dose-only effect; inactive means flat fitted curve, though single readings scatter. A potency beside an inconclusive call is a rough fit, not a confirmed value. Potency means the concentration at half of the fitted maximal effect; tags describe the fitted curve by direction and shape.",
  "data": [
    {"test": "qHTS for Inhibitors of human tyrosyl-DNA phosphodiesterase 1 (TDP1): qHTS in cells in presence of CPT; further: nearly all actives have a fitted effect of over 55% in size", "conditions": "chicken DT40 Tdp1-/-;hTDP1 cells + 20 nM CPT, ATP luminescence, 48 h; series mostly up to 46.2 µM", "in_short": "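Chicken DT40 Tdp1-/- cells complemented with human TDP1, 400 cells/well, exposed to compounds plus 20 nM camptothecin for at least 48 h at 37 C; viability read as ATP content by CellTiter-Glo luminescence.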", "values": [
      {"compound": "O=C(Nc1ccc(Oc2ccc(NC(=O)Nc3ccc([N+](=O)[O-])cc3)cc2)cc1)Nc1ccc([N+](=O)[O-])cc1", "Potency": "active: 2.31 µM"},
      {"compound": "CC1(c2nnnn2-c2ccc3c(c2)OCCO3)CCC(=O)N1CCCN1CCOCC1", "note": "(centres undefined)", "Potency": "inactive"},
      {"compound": "Oc1c(C=C2N=c3ccccc3=N2)sc(=S)n1-c1ccc(F)cc1", "Potency": "inactive and inconclusive: 29.1 µM [inhibitor, single point]"},
      {"compound": "O=C(N[C@@H](Cc1ccccc1)C(=O)OCc1ccccc1)c1nc[nH]c1C(=O)N[C@@H](Cc1ccccc1)C(=O)OCc1ccccc1", "Potency": "inconclusive: 29.1 µM [inhibitor, single point]"},
      {"compound": "CC(C)CC(=O)Nc1nc2c(s1)CC(C(C)(C)C)CC2", "note": "(centres undefined)", "Potency": "active: 16.4 µM"},
      {"compound": "Cc1nnc(C)c2c(C)n(-c3ccc4ncccc4c3)c(C)c12", "Potency": "active: 11.6 µM"},
      {"compound": "CCOC(=O)C1CCN(C(=O)CCc2nnc3ccc(NCCCN4CCCC4=O)nn23)CC1", "Potency": "inactive"},
      {"compound": "COc1ccc(C(=O)Nc2cccc(-c3ccc4nncn4n3)c2)cc1", "Potency": "active: 14.6 µM"},
      {"compound": "N#Cc1cccc(NC(=O)CCNS(=O)(=O)c2ccc3[nH]c(=O)oc3c2)c1", "Potency": "inactive"},
      {"compound": "CC1(C)C(C=C(Cl)Cl)C1C(=O)N(Cc1cccc(Cl)c1)C1CCS(=O)(=O)C1", "note": "(centres undefined)", "Potency": "inactive"},
      {"compound": "O=C(Nc1ccc(Br)cc1)N1CCCCC1", "Potency": "inactive"},
      {"compound": "N#C/C(=C/c1ccc(Sc2nc3ccccc3[nH]2)o1)c1cccc(Br)c1", "Potency": "inconclusive: 29.1 µM [inhibitor, single point]"},
      {"compound": "COc1ccc(C)cc1NC(=O)ON=C1CCCCC1", "Potency": "inactive"},
      {"compound": "CC(=O)c1ccc(NC(=O)C(Cc2ccccc2)n2cccc2)cc1", "note": "(centres undefined)", "Potency": "inconclusive: 18.4 µM [inhibitor, single point]"},
      {"compound": "CCOc1ccc2nc(NC(=O)C3CCCN(S(=O)(=O)c4c(C)noc4C)C3)sc2c1", "note": "(centres undefined)", "Potency": "inconclusive: 29.1 µM [inhibitor, single point]"},
      {"compound": "CCOC(=O)Nc1ccc(C(=O)c2ccncc2)cc1", "Potency": "inconclusive: 23.1 µM [inhibitor, single point]"},
      {"compound": "COn1c2c(c3c4nonc4ccc31)CCCC2", "Potency": "inconclusive: 29.1 µM [inhibitor, single point]"},
      {"compound": "CCc1nn(CCCC(=O)N2CCN(c3cc(Cl)ccc3C)CC2)c(=O)c2cc3occc3n12", "Potency": "inconclusive: 16.4 µM [inhibitor, single point]"},
      {"compound": "COc1cc(F)ccc1-c1csc(C(O)c2ccc(F)c(F)c2)n1", "note": "(centres undefined)", "Potency": "inconclusive: 25.9 µM [inhibitor, single point]"},
      {"compound": "Cc1cc(C)nc(/N=C(\\N)Nc2cccc(OCc3ccccc3)c2)n1", "Potency": "active: 16.4 µM"},
      {"compound": "Cc1ccc(N(c2ncnc(N)c2[N+](=O)[O-])C2CCCCC2)cc1", "Potency": "inconclusive: 10.3 µM [inhibitor, partial curve]"},
      {"compound": "COC(=O)c1ccc(CSc2nc3ccccc3[nH]2)o1", "Potency": "inactive"},
      {"compound": "CCN(CC)S(=O)(=O)c1ccc(S(=O)(=O)N(CC(=O)Nc2ccccc2)Cc2ccco2)cc1", "Potency": "active: 17.8 µM"},
      {"compound": "Oc1ccccc1C=NC1CCCCC1N=Cc1ccccc1O", "note": "(centres undefined)", "Potency": "inactive"},
      {"compound": "O=C(Nc1ccccc1Cl)OCC#CCOC(=O)Nc1ccccc1Cl", "Potency": "inactive"},
      {"compound": "CCC[n+]1c(C)sc2c(OC)ccc(OC)c21", "Potency": "inconclusive: 29.1 µM [inhibitor, single point]"},
      {"compound": "O=C1c2cccc(OCC(=O)N3CCCc4ccccc43)c2CCN1Cc1ccc(Br)cc1", "Potency": "active: 18.4 µM"},
      {"compound": "Cc1cccc(C(=O)NNC(=O)c2ccc(Br)cc2)c1", "Potency": "inactive"},
      {"compound": "Cc1nc2ccccn2c1C(=O)N/N=C/c1ccc2c(c1)OCO2", "Potency": "inconclusive: 29.1 µM [inhibitor, single point]"},
      {"compound": "Cc1cccc(NC(=O)CSCC(=O)Nc2cc(C(F)(F)F)ccc2N2CCOCC2)c1", "Potency": "inconclusive: 29.1 µM [inhibitor, single point]"},
      {"compound": "S=C(NCc1ccco1)NCc1ccccc1Cl", "Potency": "inactive"},
      {"compound": "Cc1cc(C(=O)NC2=NCCS2)cs1", "Potency": "inactive"},
      {"compound": "CC(=O)Nc1ccc(NS(=O)(=O)c2cc(-c3cnc(C4CC4)o3)ccc2C)cc1", "Potency": "active: 2.91 µM"},
      {"compound": "CCc1c(C)sc(NC(=O)CSc2nc3c(c(C(F)(F)F)n2)CCc2ccccc2-3)c1C#N", "Potency": "active: 20.6 µM"},
      {"compound": "Cc1c(C(=O)OC2CCCCC2)[nH]c2c1C(=O)CC(C)(C)C2", "Potency": "inconclusive: 16.4 µM [inhibitor, single point]"},
      {"compound": "CCOC(=O)/C=C/c1ccc2c(c1)S(=O)(=O)N(Cc1ccc(OC)cc1)[C@H]2CC(=O)OCC", "Potency": "active: 20.6 µM"},
      {"compound": "CCOC(=O)c1c(C)n(S(=O)(=O)c2ccc(C)cc2C)c2ccc(NS(=O)(=O)c3ccc(C)cc3C)cc12", "Potency": "inconclusive: 29.1 µM [inhibitor, single point]"},
      {"compound": "Cc1ccc(S(=O)(=O)N(C)C)cc1NC(=O)COC(=O)Cc1ccsc1", "Potency": "inactive"},
      {"compound": "CCCn1c(C)cc(C(=O)CN2C(=O)c3cccc(N)c3C2=O)c1C", "Potency": "inactive"},
      {"compound": "O=C(NCc1cccs1)c1noc2c1CCCC2", "Potency": "inconclusive: 35.5 µM [inhibitor, single point]"},
      {"compound": "C[C@]12CCC3C(CC[C@H]4CCCC[C@]34C)C1CC[C@@]2(O)CNCCO", "note": "(some centres undefined)", "Potency": "active: 13 µM"},
      {"compound": "Cc1cccc(NC(=O)c2ccc(Cn3cc(C(F)(F)F)ccc3=O)cc2)c1", "Potency": "inactive"},
      {"compound": "COc1ccc(NC(=S)NNC(=O)COc2ccc(Cl)cc2Cl)cc1", "Potency": "inconclusive: 20.6 µM [inhibitor, single point]"},
      {"compound": "CC(=O)N1CCN(C(=O)c2ccc(C(=O)c3ccccc3)cc2)CC1", "Potency": "inactive"},
      {"compound": "Cc1ccc(C2=Nc3ccccc3N(CC(=O)Nc3ccccc3F)C(=O)C2)cc1C", "Potency": "active: 23.1 µM"},
      {"compound": "Cc1cc(C(=O)N2CCCC(C(=O)c3cc(F)ccc3F)C2)c(C)o1", "note": "(centres undefined)", "Potency": "inconclusive: 29.1 µM [inhibitor, single point]"},
      {"compound": "COc1ccc(-c2sc3cc4c(cc3c2-c2ccc3c(c2)OCCO3)OCO4)cc1", "Potency": "inconclusive: 9.2 µM [inhibitor, single point]"},
      {"compound": "CC1=CC(C)C2COC(c3ccc[n+](C)c3)C1C2C", "note": "(centres undefined)", "Potency": "active: 8.2 µM"},
      {"compound": "CCC(=O)O[C@]1(C(=O)CCl)[C@@H](C)C[C@H]2[C@@H]3C[C@H](F)C4=CC(=O)C=C[C@]4(C)[C@@]3(F)[C@@H](O)C[C@@]21C", "Potency": "inconclusive: 29.9 µM [inhibitor, single point]"}
    ]}
  ]
}
